According to PubChem BioAssay AID485281 (National Center for Advancing Translational Sciences (NCATS), 2010):
Among all 350,000 compounds or so, about 260 (0.074%) were called active. The shares of active, inactive and inconclusive entries below differ from those in the screen. The call rests on the fitted dose curve; in most records, active means well fitted inhibition curve with a large enough effect; inconclusive means small, poorly fitted or top-dose-only effect; inactive means no such curve, though single readings can be large or run the other way. A potency beside an inconclusive call is a rough fit, not a confirmed value.

These compounds were tested against Ferritin light chain (Equus caballus) (UniProt P02791) (assay: qHTS Assay for Identification of Novel General Anesthetics). Conditions: apoferritin/1-aminoanthracene competitive binding, fluorescence; series mostly up to 77.5 µM.
UniProt P02791, sequence (P02791 whole entry, looked up): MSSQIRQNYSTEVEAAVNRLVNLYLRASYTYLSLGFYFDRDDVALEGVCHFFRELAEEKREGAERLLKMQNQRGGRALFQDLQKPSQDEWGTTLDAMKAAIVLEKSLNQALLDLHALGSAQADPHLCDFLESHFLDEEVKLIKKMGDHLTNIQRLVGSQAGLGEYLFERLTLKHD
Summary of the method: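 Apoferritin-based anesthetic binding model; compound displacement of fluorescent 1-AMA measured as endpoint fluorescence after 10 minutes at room temperature, scaled to free-ligand and complex controls.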
Further: nearly all actives have a fitted effect of over 20% in size.
Potency means the concentration at half of the fitted maximal effect; tags describe the fitted curve by direction and shape.

Potency, inconclusive:
COc1ccc(NC(=O)C(Br)C(C)C)cc1 (stereo unspecified) 28.2 µM [inhibitor, partial curve]
CCN1CCN(Cc2ccc(NC(=O)c3ccc(C)c(NC(=O)c4cccc(-c5cn[nH]c(=O)c5)c4)c3)cc2C(F)(F)F)CC1 31.6 µM [inhibitor, partial curve]
Clc1ccc(-c2csc(N3CCOCC3)n2)cc1 22.4 µM [inhibitor, partial curve]
O=C(N/N=C/c1cccnc1)C1CC1(c1ccccc1)c1ccccc1 (stereo unspecified) 17.8 µM [inhibitor, partial curve]
CC[C@@H](C)C(NC(=O)OC(C)(C)C)c1cn([C@@H](Cc2ccc(O)cc2)C(=O)N2CCN(C(=O)OC(C)(C)C)CC2)nn1 (stereo partly specified) 12.6 µM [inhibitor, partial curve]
CC(=O)N1CCc2cc(C(=O)CN3CCN(C(=O)c4ccco4)CC3)ccc21 17.8 µM [inhibitor, partial curve]
CC(C)(C)NC(=O)c1cc([N+](=O)[O-])ccc1N1CCCCC1 25.1 µM [inhibitor, partial curve]
Cc1cc(C(C)(C)C)cc(C)c1COC(=O)C1CCC(=O)N1 (stereo unspecified) 25.1 µM [inhibitor, partial curve]
Cc1ccc2[nH]c(-c3cccc(N)c3)cc2c1 28.2 µM [inhibitor, partial curve]
CCC1CN(C(=O)N2CCC(C(=O)N3CCN(c4cccc(C)c4C)CC3)CC2)c2ccccc2O1 (stereo unspecified) 7.94 µM [inhibitor, full curve, poor fit]
COCCCNC(=O)c1c[nH]c2ccc(S(=O)(=O)N3CCc4ccccc43)cc2c1=O 28.2 µM [inhibitor, single point]
Cc1ccc(Cl)cc1NC(=O)CCC(=O)N1CC(C)Sc2ccccc21 (stereo unspecified) 17.8 µM [inhibitor, partial curve]
Cc1cccc(/C=N/NC(=O)NC23CC4CC(CC(C4)C2)C3)n1 35.5 µM [inhibitor, partial curve]
COc1ccc(NC(=O)C2CCN(Cc3cnn(-c4ccccc4)c3-n3cccc3)CC2)cc1OC 14.1 µM [inhibitor, partial curve]
Cc1nc2cc(C(F)(F)F)ccc2n1CCNc1nc(-c2ccc([N+](=O)[O-])c(Cl)c2)cs1 8.91 µM [inhibitor, partial curve]

Potency, inactive:
CCOc1cc(S(=O)(=O)NCc2ccc(OC)cc2)c(OCC)cc1-n1cnnn1
